Measured values as given in PubChem BioAssay AID1745853 (National Center for Advancing Translational Sciences (NCATS), 2022).
The list shows a part of the results. These are further read-outs of the screen, such as a control signal, another cell line or another target. No call is given for them.

How the values were obtained:
Experiment in all cases: Primary Screen for Target Class Profiling of Small Molecule Inhibitors of Methyltransferases
[1] = target: Glycine N-methyltransferase (Homo sapiens) (UniProt Q14749); settings: purified enzyme, MTase-Glo SAH luminescence; measured here: GNMT inhibition; at 40 µM; stronger effect = lower value
In short: (§1)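 Each enzyme was reacted with SAM and its substrate, with compounds tested once at 40 uM; SAH formed was read by MTase-Glo luminescence.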

[2] = target: Guanidinoacetate N-methyltransferase (Homo sapiens) (UniProt Q14353); settings: purified enzyme, MTase-Glo SAH luminescence; measured here: GAMT inhibition; at 40 µM; stronger effect = lower value
In short: as §1

[3] = target: Histamine N-methyltransferase (Homo sapiens) (UniProt P50135); settings: purified enzyme, MTase-Glo SAH luminescence; measured here: HNMT inhibition; at 40 µM; stronger effect = lower value
In short: as §1

[4] = target: Nicotinamide N-methyltransferase (Homo sapiens) (UniProt P40261); settings: purified enzyme, MTase-Glo SAH luminescence; measured here: NNMT inhibition; at 40 µM; stronger effect = lower value
In short: as §1

[5] = target: Phenylethanolamine N-methyltransferase (Homo sapiens) (UniProt P11086); settings: purified enzyme, MTase-Glo SAH luminescence; measured here: PNMT inhibition; at 40 µM; stronger effect = lower value
In short: as §1
On the % scale 0 is the no-effect control and ±100 the full control effect.

Structure (SMILES) | activity change, negative = inhibition [1] | activity change, negative = inhibition [2] | activity change, negative = inhibition [3] | activity change, negative = inhibition [4] | activity change, negative = inhibition [5]
O=C(NC1CCCCC1)c1nc[nH]c1C(=O)NCCc1c[nH]c2ccccc12 | -3.71% | 3.76% | 0.121% | -13.2% | -3.5%
CCCC1c2cccn2CCN1C(=O)NCc1cccc(OC)c1 (stereo not given) | -0.29% | 0% | 2.08% | 0.689% | 2.97%
CC(=O)N1CCC(N[C@H]2C[C@@H](Cc3cc(CN(C)C)on3)C2(C)C)CC1 | -5.45% | -4.56% | -3.12% | -3.08% | -2.26%
COC(=O)[C@@H](C)NC(=O)[C@H]1CN(C(=O)c2cccnc2)CCN1S(=O)(=O)c1ccccc1 | -4.71% | -10.7% | -5.4% | -2.72% | -4.5%
C=Cc1ccc(CSc2nnc3n(CCC)c(=O)c4ccc(Cl)cc4n23)cc1 | 1.75% | 2.79% | 2.52% | 1.89% | 2.43%
O=C(Cn1c(=O)oc2cc(S(=O)(=O)NCc3ccccc3)ccc21)NCc1ccco1 | -5.44% | 5.32% | 1.45% | 5.66% | -3.92%
COCCCN1C(=O)c2cc(-c3ccc(OC)cc3)nn2CC1(C)C(=O)NCc1ccccc1OC (stereo not given) | -5.54% | 0.558% | -4.13% | -6.9% | -7.38%
c1cncc(CN2CCC(n3ncc4c(N5CCOCC5)nc(-c5ccc6[nH]ccc6c5)nc43)CC2)c1 | -39% | 16.7% | -0.481% | -5.21% | 6.99%
O=C(Cn1c(=O)oc2cc(S(=O)(=O)N3CCCC3)ccc21)Nc1ccc(F)cc1 | 2.99% | 0.258% | 2.38% | -1.94% | -16%
CC1(C(=O)NC2CCCCC2)Cn2nc(-c3ccco3)cc2C(=O)N1CCCc1ccccc1 (stereo not given) | 1.48% | -1.81% | 3.67% | 0.364% | -3.36%
Cc1cccc(-c2noc([C@@H]3Cc4nc[nH]c4CN3C(=O)COCC(=O)O)n2)c1 | -3.4% | 2.48% | 0.3% | -3.5% | 4.42%
COC1CCN(C(=O)c2cc(Cc3n[nH]c(=O)c4ccccc34)ccc2F)CC1 | -3.15% | -5.98% | -6.68% | -18.1% | -13.7%
CCN(Cc1nc(C)no1)C(=O)c1cc(COc2cccc(F)c2)[nH]n1 | -1.43% | 1.47% | -0.04% | -0.729% | 12.6%
COc1ccc(-c2cc3n(n2)CC(C)(C(=O)NCc2ccccc2)N(c2cccc(Cl)c2C)C3=O)cc1 (stereo not given) | -1.24% | 4.34% | -0.4% | -0.995% | -1.05%
CC(C)Cn1c(=O)c2ccccc2n2c(CCC(=O)NCc3ccccc3Cl)nnc12 | -4.57% | 0% | 9.38% | 7.89% | -0.048%
CCCN1C(=O)c2c(C(=O)NCCc3ccc(OC)c(OC)c3)ncn2CC1(C)C(=O)NC1CCCC1 (stereo not given) | -4.33% | 4.69% | 2.73% | 0.396% | 4.01%
CN1CCN(c2nc3c(-c4cccc(F)c4)nnn3c3ccc(Cl)cc23)CC1 | -3.74% | 0.439% | 8.52% | 13.2% | 0.879%
CCOC(=O)c1cc2n(n1)CC(C)(C(=O)NCc1ccccc1)N(c1ccc(C)cc1C)C2=O (stereo not given) | -3.42% | 0.681% | -4.56% | -6.25% | -4%
